Activity change, negative = inhibition data for 31 compounds are collected here from PubChem BioAssay AID1745853 (National Center for Advancing Translational Sciences (NCATS), 2022).

Experiment in all cases: Primary Screen for Target Class Profiling of Small Molecule Inhibitors of Methyltransferases
Assay [1] addresses Glycine N-methyltransferase (Homo sapiens) (UniProt Q14749). The following applies: purified enzyme, MTase-Glo SAH luminescence; measured here: GNMT inhibition; at 40 µM; stronger effect = lower value. An outline of the steps:
(§1)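 Each enzyme was reacted with SAM and its substrate, with compounds tested once at 40 uM; SAH formed was read by MTase-Glo luminescence.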

Assay [2] deals with Guanidinoacetate N-methyltransferase (Homo sapiens) (UniProt Q14353). The following applies: purified enzyme, MTase-Glo SAH luminescence; measured here: GAMT inhibition; at 40 µM; stronger effect = lower value. An outline of the steps: as §1
The target in assay [3] is Histamine N-methyltransferase (Homo sapiens) (UniProt P50135). Conditions: purified enzyme, MTase-Glo SAH luminescence; measured here: HNMT inhibition; at 40 µM; stronger effect = lower value. An outline of the steps:
as §1

For assay [4], the target named is Nicotinamide N-methyltransferase (Homo sapiens) (UniProt P40261). The following applies: purified enzyme, MTase-Glo SAH luminescence; measured here: NNMT inhibition; at 40 µM; stronger effect = lower value. An outline of the steps: as §1
In assay [5] the target is Phenylethanolamine N-methyltransferase (Homo sapiens) (UniProt P11086). The following applies: purified enzyme, MTase-Glo SAH luminescence; measured here: PNMT inhibition; at 40 µM; stronger effect = lower value. An outline of the steps: as §1

Some of the results follow. The main result of the screen is listed elsewhere. These columns were measured beside it and carry no call.
% is scaled to controls: 0 for no effect and ±100 for the full control effect.

For `NC(=O)[C@@H](Cc1ccccc1)NC(=O)C1=C[C@@H](NC(=O)CS(=O)(=O)c2ccccc2)[C@@H](O)[C@H](O)C1`, the activity change, negative = inhibition is -8.46% in assay [1]; -4.92% in assay [2]; -4.83% in assay [3]; -8.34% in assay [4]; -8.27% in assay [5].

Turning to `O=C(NCCc1ccccc1)c1nc2sccn2c1-c1cccnc1`, the activity change, negative = inhibition is -9.24% in assay [1]; -12.5% in assay [2]; -4.04% in assay [3]; -16.7% in assay [4]; -11% in assay [5].

Regarding `COc1ccc(CN2C(=O)c3cc4ccc(OC)cc4n3CC2(C)C(=O)NC2CCCCC2)cc1` (stereo not given), the activity change, negative = inhibition in assay [1] is 3.68%; in assay [2], 5.57%; in assay [3], 7.56%; in assay [4], -1.92%; in assay [5], 1.39%.

In the case of `CC(C)c1noc(-c2cn(C3CCCN(C(=O)c4ccc[nH]4)C3)nn2)n1` (stereo not given), the activity change, negative = inhibition was -2.98% in assay [1]; 0.62% in assay [2]; -1.08% in assay [3]; 0.272% in assay [4]; 8.81% in assay [5].

Turning to `CN1C2CCC1CC(OC(c1ccccc1)c1ccccc1)C2` (stereo not given), the activity change, negative = inhibition is 2.18% in assay [1]; 9.05% in assay [2]; -37.4% in assay [3]; -18.3% in assay [4]; 3.61% in assay [5].

Regarding `COC(=O)c1ncn2c1C(=O)N(Cc1cccnc1)C(C)(C(=O)NCc1ccccc1OC)C2` (stereo not given), the activity change, negative = inhibition in assay [1] was 0.112%; in assay [2] it was 1.5%; in assay [3], 13.1%; in assay [4], 10.1%; in assay [5] it was 10%.

As for `O=C(C1CCc2nnc(-c3ccc(Cl)cc3Cl)n21)N1CCCC1` (stereo not given), the activity change, negative = inhibition is -6.71% in assay [1]; -7.8% in assay [2]; -3.38% in assay [3]; -12.3% in assay [4]; -3.89% in assay [5].

In the case of `CC(C)OCCCNC(=O)c1cc2n(n1)CC(C)(C(=O)NCc1ccccc1)N(C)C2=O` (stereo not given), the activity change, negative = inhibition in assay [1] was -1.32%; in assay [2], -3.18%; in assay [3], 3.62%; in assay [4] it was -2.87%; in assay [5] it was -4.64%.

For `O=C1NC(=NC2CCCCC2)C2(CCN(Cc3ccccc3)C2)N1c1cccnc1` (stereo not given), the activity change, negative = inhibition in assay [1] was -5.83%; in assay [2] it was -7.73%; in assay [3], -2.22%; in assay [4], -20%; in assay [5] it was -4.74%.

As to `CCC1C(=O)N(C)CCN1C(=O)c1coc(COc2ccc3c(c2)OCO3)n1` (stereo not given), the activity change, negative = inhibition was -6.17% in assay [1]; -5.25% in assay [2]; -3% in assay [3]; -7.95% in assay [4]; -3.32% in assay [5].

Consider `CCCN1C(=O)c2c(C(=O)NCCC3=CCCCC3)ncn2CC1(C)C(=O)NCc1ccc(F)cc1` (stereo not given), for which the activity change, negative = inhibition was 1.06% in assay [1]; 0.865% in assay [2]; 8.93% in assay [3]; -1.14% in assay [4]; 7.98% in assay [5].

Consider `CC1(CO)CCCC2(C)C1C(OC(=O)c1ccccc1)C=C1C(=O)OCC12O` (stereo not given), for which the activity change, negative = inhibition is 0% in assay [1]; 4.13% in assay [2]; 2.66% in assay [3]; -11.2% in assay [4]; 4.87% in assay [5].

Turning to `O=c1cc(-c2ccccn2)oc2c(Nc3cccnc3)nccc12`, the activity change, negative = inhibition is -26.2% in assay [1]; -5.58% in assay [2]; -7.69% in assay [3]; -11.4% in assay [4]; -5.2% in assay [5].

`Cc1nc2cccnc2n1CC1CCCN(S(=O)(=O)c2ccc3c(c2)OCCO3)C1` (stereo not given): the activity change, negative = inhibition in assay [1] was -72.2%; in assay [2], 1.09%; in assay [3], -2.32%; in assay [4], -7.58%; in assay [5] it was 1.51%.

In the case of `C=CC(C)(C)c1[nH]c2cc3c(cc2c1CC1NC(=O)C2CCCN2C1=O)C=CC(C)(C)O3` (stereo not given), the activity change, negative = inhibition in assay [1] is 0%; in assay [2], 7.68%; in assay [3], 6.91%; in assay [4], -10.4%; in assay [5] it was 7.12%.

Regarding `COc1cccc(C(=O)Cn2nc3n(C)c(=O)c4ccc(C(=O)NC5CCCC5)cc4n3c2=O)c1`, the activity change, negative = inhibition is 4.96% in assay [1]; 0% in assay [2]; 2.83% in assay [3]; 6.38% in assay [4]; 5.83% in assay [5].

Take `O=C(NCC1CCOCC1)C1COc2ccccc2O1` (stereo not given): the activity change, negative = inhibition in assay [1] was -2.19%; in assay [2] it was -6.16%; in assay [3] it was -0.198%; in assay [4], -8.43%; in assay [5], -9.36%.

Turning to `Cc1cc(NC(=O)C2CCN(c3cc(C(F)(F)F)ncn3)CC2)ccc1Br`, the activity change, negative = inhibition in assay [1] was -11.9%; in assay [2], -6.89%; in assay [3], -2.99%; in assay [4], -12.7%; in assay [5], -8.68%.

With `Cc1ccc(C)c(N2CCN(C(=O)CCc3nnc4n(Cc5ccc(F)cc5)c(=O)c5ccccc5n34)CC2)c1`, the activity change, negative = inhibition in assay [1] was -2.01%; in assay [2] it was 3.15%; in assay [3], 3.33%; in assay [4], 1.52%; in assay [5] it was -3.19%.

As for `CC1(C(=O)NC2CCCC2)Cn2c(cc3ccccc32)C(=O)N1Cc1ccco1` (stereo not given), the activity change, negative = inhibition in assay [1] was -8.34%; in assay [2], 4.12%; in assay [3], 0.032%; in assay [4] it was -3.96%; in assay [5] it was -0.996%.

In the case of `CC(C)c1ccc2c(c1)C(=O)CC1[C@@](C)(C(=O)O)CCC[C@]21C` (stereo not given in full), the activity change, negative = inhibition in assay [1] is -2.51%; in assay [2] it was -3.24%; in assay [3], 4.92%; in assay [4] it was -14.9%; in assay [5], 1.33%.

As to `Cc1ccc(C(=O)CSc2nnc3n(CC(C)C)c(=O)c4ccc(C(=O)NC(C)C)cc4n23)c(C)c1`, the activity change, negative = inhibition was 1.85% in assay [1]; 2.43% in assay [2]; 3.93% in assay [3]; -4.08% in assay [4]; -3.11% in assay [5].

Consider `CCn1ccc(C(=O)N2CCC3(CC2)CC(N(C(=O)c2ccccc2)C2CC2)CCO3)n1` (stereo not given), for which the activity change, negative = inhibition in assay [1] is -1.98%; in assay [2] it was 0.32%; in assay [3] it was -3.36%; in assay [4], -3.9%; in assay [5], -4.15%.

In the case of `Cc1nn(C)c(C)c1CCC(=O)NC1CCc2nnc(C3CC3)n2CC1` (stereo not given), the activity change, negative = inhibition in assay [1] was -2.62%; in assay [2], -1.03%; in assay [3], 1.47%; in assay [4], -1.04%; in assay [5], -4.83%.

On to `CC(=O)c1c(O)cc2cccc3c2c1CC(C)(O)O3` (stereo not given), for which the activity change, negative = inhibition in assay [1] was -0.183%; in assay [2] it was -7.4%; in assay [3] it was -9.71%; in assay [4], -19%; in assay [5], -11.3%.

As to `CC(C)c1ccc(NC(=O)Cn2cnc3c2c(=O)n(C)c(=O)n3C)cc1`, the activity change, negative = inhibition in assay [1] was -1.64%; in assay [2], -1.81%; in assay [3], 9.39%; in assay [4] it was -20.3%; in assay [5], 0.133%.

`CC1CCCCN1CCN1C(=O)c2cc3ccccc3n2CC1(C)C(=O)NC1CCCCCCC1` (stereo not given): the activity change, negative = inhibition in assay [1] is -3.6%; in assay [2], 0.749%; in assay [3] it was -8.02%; in assay [4], -13.9%; in assay [5] it was -7.22%.

For `Cc1ccc(CNC(=O)CN(C)S(=O)(=O)c2ccc3[nH]c4c(c3c2)CCCC4)cc1`, the activity change, negative = inhibition is -3.97% in assay [1]; 3.03% in assay [2]; 2.04% in assay [3]; -2.43% in assay [4]; -0.484% in assay [5].

Consider `CSc1ccc(CCNC(=O)C(C)n2ccc3cc(S(=O)(=O)N4CCCC4)ccc32)cc1` (stereo not given), for which the activity change, negative = inhibition is -3% in assay [1]; 2.36% in assay [2]; -6.84% in assay [3]; -3.6% in assay [4]; -3.31% in assay [5].

As to `CCCn1c(=O)c2ccc(C(=O)NC(C)C)cc2n2c(=O)n(CC(=O)NC3CCCC3)nc12`, the activity change, negative = inhibition is 7.76% in assay [1]; 1.29% in assay [2]; 5.26% in assay [3]; 9.35% in assay [4]; 8.15% in assay [5].

As for `C=C1C(OC(C)=O)C(=O)C2C(C)(C)C(O)CCC2(C)C1CC(OC(C)=O)/C(C)=C/COC(C)=O` (stereo not given), the activity change, negative = inhibition in assay [1] was -3.02%; in assay [2], -5.94%; in assay [3] it was 9.39%; in assay [4] it was -17.6%; in assay [5] it was -10.7%.
